From ChEMBL document CHEMBL1157539, “Thousands of chemical starting points for antimalarial lead identification” (Nature, 2010)
Whole data set: some 13,000 compounds, median “IFI” near 4, cut for the highest 2% near 17. Some of the results follow.

test: GSK_TCMDC: Inhibition Frequency Index (IFI). The number of non-kinase HTS assays where a compound showed > 50 % inhibition, expressed as a percentage of the number of such assays in which the compound was tested (-0 is zero); assay type: functional

Row | Structure (SMILES) | IFI
1 | COc1ccc2nccc([C@@H](O)CN3CCC(NC(=O)/C=C/c4cccc(-c5ccccc5)c4)CC3)c2c1 | 2.21%
2 | O=C(Nc1cccc(-c2ccc(CN3CCCC3)cc2)c1)c1cccc(Cl)c1 | 1.96%
3 | O=C(Nc1ccc2c(c1)CCN2C1CCN(Cc2cccc(C(F)(F)F)c2)C1)c1ccco1 (stereo not drawn) | -0%
4 | COc1ccc(CNCc2ccc(-c3ccc(-c4nc5cccc(C)c5[nH]4)s3)cc2)cc1 | 12.5%
5 | CCCCc1cc(NCC)nc(Nc2ccc(F)cc2)n1 | 6.06%
6 | NC1=NC2(CCCCC2)N(Cc2ccc(Cl)c(Cl)c2)C(N)=N1 | 6.67%
7 | CCN(CC)CCCOc1ccc(Nc2nccc(-c3c(-c4cccc(NC(=O)c5c(F)cccc5F)c4)nn4ccccc34)n2)cc1F | 8.59%
8 | CC(C)CNCc1cccc(-c2ccc(CNC3CCN(Cc4ccccc4)CC3)cc2)c1 | 4.2%
9 | Cc1cccc2nc(-c3ccc(-c4cccc(CNCCN5CCNCC5)c4)cc3)[nH]c12 | 6.93%
10 | CC(C)Nc1nc(NCCc2c[nH]cn2)nc(Nc2ccc(Oc3ccccc3)cc2)n1 | 1.46%
11 | CCOC(=O)c1ccc(OCCOc2ccccc2)cc1 | -0%
12 | CCCc1ccc(Cc2cnc3nc(N)nc(N)c3c2C)cc1 | 2.42%
13 | CCc1c[nH]c2c(N3CCCS3(=O)=O)cc(C(=O)N[C@@H](Cc3ccccc3)[C@H](O)CNC(C)(C)CCCC(C)C)cc12 | 8.03%
14 | O=C(Nc1ccc(C(=O)OCC2CCCCC2)cc1)N[C@@H](Cc1ccc(O)cc1)C(=O)NC1CCN(Cc2ccc(O)cc2)C1 (stereo partly drawn) | 5.41%
15 | CC(=O)Nc1ccc(S(=O)(=O)Nc2ccc(Nc3nc(C)cc(N4CCCCC4)n3)cc2)cc1 | 2%
16 | c1ccc2cc(CNCCCN3CCN(CCCNCc4ccc5ccccc5c4)CC3)ccc2c1 | 11.7%
17 | COc1ccc(CNCc2ccccc2)cc1-c1cccc(S(=O)(=O)NCCN2CCCC2)c1 | 11.1%
18 | N#Cc1ccc(CNCCCCCCNCc2ccc(C#N)c3ccccc23)c2ccccc12 | 7.04%
19 | CCOc1ccc(-c2cc3nc(C4CCNCC4)c(C(=O)Nc4ccc(C)cc4Cl)cn3n2)cc1 | 9.68%
20 | Cc1ccc(S(=O)(=O)N(CCCNCc2cccc(O)c2)c2ccccc2)cc1 | 4.73%

Row | Structure (SMILES) | IFI
21 | CC(Cc1ccc(NC(=O)COc2ccc(CC(C)NCCc3cccc(Cl)c3)cc2)cc1)NCCc1cccc(Cl)c1 (stereo not drawn) | 32.4%
22 | CCOc1ccc2c(=NN=Cc3cc(OC)c(OC)c(OC)c3)cc(C)[nH]c2c1 | 4.32%
23 | CCOc1ccc2ccccc2c1CNCCCCCCNCc1c(OCC)ccc2ccccc12 | 13%
24 | Nc1cccc(C=CC(=O)N=c2cc[nH]c3ccccc23)c1 | 2.29%
25 | Cc1cc(C)cc(OCC(O)CN(Cc2cc(Cl)cc(Cl)c2)C(=O)Nc2ccc([N+](=O)[O-])cc2)c1 (stereo not drawn) | 4.11%
26 | CS(=O)(=O)Cc1ccc(Nc2nccc(-c3c(-c4cccc(NC(=O)c5c(F)cccc5F)c4)nn4ccccc34)n2)cc1 | 7.14%
27 | Cc1ccc(C2=NNC3(S2)C(=O)Nc2ccc(C)cc23)cc1 (stereo not drawn) | 11.3%
28 | O=[N+]([O-])c1cc(/C=N/Nc2nc3ccccc3[nH]2)ccc1O | 1.56%
29 | Oc1cc(Nc2ccnc3cc(-c4ccc(CN5CCCCC5)o4)ccc23)c(Cl)cc1F | 11.5%
30 | COc1cc2nc(C)nc(Nc3cccc(Br)c3)c2cc1OC | -0%
31 | COc1ccc(-c2cncc(-c3ccc(OC)c(OC)c3)n2)cc1OC | 2.99%
32 | CO/C(=C\C=C\c1cc2cc(Cl)c(Cl)cc2[nH]1)C(=O)NCCCCN1CCN(c2ccccc2OC)CC1 | 19.1%
33 | CC(=O)c1ccc(NC(=O)CSc2nc(-c3ccccc3Cl)ns2)cc1 | 4.76%
34 | Cc1ccc2ccccc2c1CCCON1C(=N)N=C(N)NC1(C)C | 4.93%
35 | O=S(=O)(NCCN1CCCC1)c1cccc(-c2ccc(CNCc3ccccc3)cc2)c1 | 5.88%
36 | CSc1cccc(Nc2nc3ccc(S(=O)(=O)NCC(C)C)cc3n2C(C)C(C)C)c1 (stereo not drawn) | 2.96%
37 | Nc1nccc2ccc(-c3ccc4nccn4c3)cc12 | 5.49%
38 | CC(C)CCN1CCC(Oc2ccc(NC(=O)c3ccc4ncccc4c3)cc2Cl)C1 (stereo not drawn) | 7.69%
39 | Cc1c[nH]c(-c2cccc(C(=O)NC3CCC(CCN4CCc5ccc(C#N)cc5CC4)CC3)c2)n1 (stereo not drawn) | 5%
40 | CC1(C)NC(N)=NC(=N)N1OCCNCc1ccc(Cl)cc1 | 0.74%

Row | Structure (SMILES) | IFI
41 | Cc1cc(N(C)C2CCN(CC3CCCCC3)C2)nc(Nc2ccc(Br)cc2)n1 (stereo not drawn) | 7.89%
42 | COc1cccc(C(=O)NC(C=Cc2ccccc2)c2cc(Cl)c3cccnc3c2O)c1 (stereo not drawn) | 4.67%
43 | CCN(CC)CCN(CCN(CC)CC)c1ccc2c(c1)Sc1c(Cl)ccc(Cl)c1S2 | 7.41%
44 | CC1CN(Cc2csc(Nc3ccccc3)n2)CC(C)O1 (stereo not drawn) | 3.77%
45 | Cc1cccc2nc(-c3ccc(-c4ccc(CNCCNC(=O)c5ccnn5C)cc4)cc3)[nH]c12 | 6.93%
46 | Cc1cccc2nc(-c3cccc(-c4ccc(NC(=O)NCc5ccccc5)cc4)c3)[nH]c12 | 2.02%
47 | COc1ccc2ncc(F)c(CCN3CCC[C@H](CNCc4ccc5c(n4)NC(=O)CS5)C3)c2n1 | 3.85%
48 | Cc1cc(N[C@@H](CC(C)C)C(=O)NCCOc2ccccc2)nc(NCCc2ccccc2)n1 | 10%
49 | FC(F)(F)c1ccc2[nH]ccc(=NN=Cc3ccccc3Cl)c2c1 | -0%
50 | O=C(C1CCCCC1)N1CCOC(CCN2CCC(c3ccccc3)CC2)(c2ccc(Cl)c(Cl)c2)C1 (stereo not drawn) | 7.33%
51 | CC(C)CCn1c(Sc2ccc(C#N)c([N+](=O)[O-])c2)nnc1-c1cccc(Cl)c1 | 6.43%
52 | Cc1cc(F)ccc1[C@H]1CNCCN1C(=O)N(C)[C@@H](C)c1cc(C(F)(F)F)cc(C(F)(F)F)c1 | 7.69%
53 | CCCNCCc1ccc(NS(=O)(=O)c2cccc(-c3ccc(Cl)cc3)c2)cc1 | 15.7%
54 | COc1ccc(CC(=O)NC(CCCN2CCC3(CC2)OCc2ccccc23)c2ccc(Cl)c(Cl)c2)cc1 (stereo not drawn) | 8.11%
55 | COc1ccc2ccccc2c1C=NN=c1cc(C)[nH]c2c(C)cccc12 | 1.48%
56 | COc1cccc(OC2CCN(C(=O)c3cc(C(C)(C)C)nn3Cc3ccccc3)CC2)c1 | -0%
57 | Cc1ccc(NCc2cccc(F)c2)cc1S(=O)(=O)N[C@@H]1CCN(C#N)C1 | 2.94%
58 | O=C(CNC(=O)c1ccc(O)cc1)Nc1cccc(-c2cccc(-c3nc4cc(C(F)(F)F)ccc4[nH]3)c2)c1 | 6.19%
